# Some of the results follow.
# B1: ENSG00000105438:stop:overlap|stop_codon|ENSG00000105438|stop_codon|NA|stop_codon (ssRNA)
# RNA: GGGAGUUCUACAGUCCGACGAUCAUUUCUUCUACCUCUAUAUCACCAAAGUCCUAAAGGGGAAGAAGUUGAGUUUGCCGGCAUAGCCCCGGUCCUCUCCAUCUCUCUCCUCGGCAGCAGCGGGAGGCAGAGGAAGGCGGCAGACAACAGAGGAUUGAGCAUCA
# B2: ENSG00000136451:be:win_651|CDS|ENSG00000136451|bound_else_gene|NA|bound_elsewhere_windowed (ssRNA)
# RNA: GGGAGUUCUACAGUCCGACGAUCGACUUACCAUGUGAGGUCUCAUGAAGGAGGCAUCACCAAACCCUAUACUUGCAGUGUUUGUGGGAAAGGCUUCUCAAGGCCUGACCACUUAAGCUGUCAUGUAAAACAUGUCCAUUCAACCAACAGAGGAUUGAGCAUCA
# B3: chr20:45898604:45898705:+|3pUTR|ENSG00000064601|unk|total|mutant (ssRNA)
# RNA: GGGAGUUCUACAGUCCGACGAUCAGAGCCCUGUACAUCCCAGACUGGGCCCAGGGUCUCCCACCGACAGCCUGGGGGCAAGUCCGCACUUUAUUCCCGCAGCAGUUCCUGAAUGGGGUGGCCUGGCCCCUUCUCUGCUUAAAGCAACAGAGGAUUGAGCAUCA
# B4: chr1:162599429:162599460:+|3pUTR|ENSG00000117143|msi1_unk|total|mutant (ssRNA)
# RNA: GGGAGUUCUACAGUCCGACGAUCGGUAUUUGAACCAGAUACCAAGUUUUGUUUGCCACGACCGGAACCGCUUUUAUUUUUGACCGACCAACUGUGAACCUACAAGACGUCUUGGACAACUGAAGUUUAAAUAUCCACAGGGUUCAACAGAGGAUUGAGCAUCA
# B5: chr12:55956948:55957671:-|CDS|ENSG00000185664|control|control|control (ssRNA)
# RNA: GGGAGUUCUACAGUCCGACGAUCGUGCUUUCUGGAACCACAGCUGCACAGGUAACAACUACAGAGUGGGUGGAGACCACAGCUAGAGAGCUACCUAUCCCUGAGCCUGAAGGUCCAGAUGCCAGCUCAAUCAUGUCUACGGAACAACAGAGGAUUGAGCAUCA
# B6: ENSG00000165916:stop:overlap|stop_codon|ENSG00000165916|stop_codon|NA|stop_codon (ssRNA)
# RNA: GGGAGUUCUACAGUCCGACGAUCACAUGGAAGGCAUCCUGGAGGUGCAGGCCAAGAAGAAAGCCAACCUACAAUACUACGCCUAGGGCACACAGGCCAGCCCCAGUCUCACGGCUGAAGUGCGCAAUAAAAGAUGGUUUAGGGCAACAGAGGAUUGAGCAUCA
# B7: ENSG00000070961:be:win_2851|CDS|ENSG00000070961|bound_else_gene|NA|bound_elsewhere_windowed (ssRNA)
# RNA: GGGAGUUCUACAGUCCGACGAUCGAAAAGUUUUUUGACAUUGAUAGUGGAAGAAAUGCUCCUUUGCAUGCUCCUCCUUCAGAACAUUAUACUAUUGUUUUUAAUACCUUUGUGCUGAUGCAACUUUUCAACGAAAUAAAUGCCCAACAGAGGAUUGAGCAUCA
# B8: ENSG00000107863:be:win_2601|CDS|ENSG00000107863|bound_else_gene|NA|bound_elsewhere_windowed (ssRNA)
# RNA: GGGAGUUCUACAGUCCGACGAUCCCUGGAUGCUCAGCCCAACUCAAAGACAGAAAGAUCAAAAUCAUAUGAUGAGGGUCUGGAUGAUUACAGAGAAGAUGCAAAAUUGUCCUUUAAGCACGUAUCUAGUCUGAAGGGAAUCAACAACAGAGGAUUGAGCAUCA
# B9: chr13:77097425:77097526:-|CDS|ENSG00000005810|msi1|FALSE|unique (ssRNA)
# RNA: GGGAGUUCUACAGUCCGACGAUCAGAAAAGGCAGAAGUUAGGCCCAGGGGUAAUUUGUUUGGAGAGAUGGCCCAGCUGGCAGUAGGAGGACCAGAGAAAGAUACCAUCUGUGAACUGUGUGGGGAGUCACAUCCAUACCCGGUCAACAGAGGAUUGAGCAUCA
# B10: chr13:20975083:20975184:-|CDS|ENSG00000150457|msi1|total|mutant (ssRNA)
# RNA: GGGAGUUCUACAGUCCGACGAUCGCCAGCCCCCUACGUUCCCACCAUCAGCCACCCCAUGGACACCUCGAAUUUCGACCCCGCCGAUGAAGAAAGCCCUUGGAACGAUGCCAGCGAAGGCCGCACCAAGGCCUGGGACACACUCAACAGAGGAUUGAGCAUCA
# B11: chr6:57184343:57184440:+|3pUTR|ENSG00000112208|msi1_unk|FALSE|overlapping (ssRNA)
# RNA: GGGAGUUCUACAGUCCGACGAUCUCUUCAGUUUUGUGAAUAACAAAACUAGCAAUAUUUUAAUUAUCUAUCUAGAGAUUUUUUAGAUUGAAUUCUUGUCUUGUACUAGGAUCUAGCAUAUUUCACUAUUCUGUGGAUGAAUACCAACAGAGGAUUGAGCAUCA
# B12: chrX:53532849:53532950:-|3pUTR|ENSG00000086758|unk|total|mutant (ssRNA)
# RNA: GGGAGUUCUACAGUCCGACGAUCGUGCUCCUCAGAUUCUGUGUUCAGAAGGAUUUGCUGCAUUGAGACUUGAAACCUUUGGACCGGGGAAAAAAUUAUAUAUAUAUAUAUUUUUUUGUUCUGUUUGCAUUUCUUAAUUUGUGCCAACAGAGGAUUGAGCAUCA
# B13: chr8:17644361:17644462:-|3pUTR|ENSG00000129422|msi1|total|mutant (ssRNA)
# RNA: GGGAGUUCUACAGUCCGACGAUCCAACAUUGUGAUGUCAGUAUUUACUAAUCUACAUUCAGUGGCUGUACAAAUAACAGCUGCCGUAAGAAGAGAUUCAGGAUGCCCGAGGUGAAUAUUUGGGUCAUUUACAUGUACACUACACAACAGAGGAUUGAGCAUCA
# B14: chr12:10908389:10909298:-|CDS|ENSG00000212128|control|control|control (ssRNA)
# RNA: GGGAGUUCUACAGUCCGACGAUCCAUGCUUUGUGAGACGAUUGGAGUCUUCUCUCCUUCAAGCCACUCCUUUCUUCUGAUUCUAGGAAACGCUAAGUUAAGACAGGCCUUUCUUUUGGUGGCAGCUAAGGUAUGGGCUAAACGCAACAGAGGAUUGAGCAUCA
# B15: chr7:101206146:101206247:-|3pUTR|ENSG00000106397|msi1|total|mutant (ssRNA)
# RNA: GGGAGUUCUACAGUCCGACGAUCCUUUGUCGACCCCUGACACUCAACCACUCUGCCAAACCUGCCCUGCCAUUGUGCCUUUUCCGGGGGCCUGGCCCCCGUCCUGGGAGUUGGGGGAUGGGUCUCUCUGUCUCCCCACUUCCUCAACAGAGGAUUGAGCAUCA
# B16: chr14:100883974:100884119:-|CDS|ENSG00000254656|unk|FALSE|unique (ssRNA)
# RNA: GGGAGUUCUACAGUCCGACGAUCGUUCUAUAACGACCGUCUGAGAGUUGGCUAUGUCAUCAAUCACCUGUCCGGCUUGGCAUUAGAAUGGGCCAAAGCUCUACUGCAGGAAAACAGCCCCCUGAUCGGAGACUUCCCAGCCUUCAACAGAGGAUUGAGCAUCA
# B17: chr1:37566712:37566813:+|3pUTR|ENSG00000163879|unk|FALSE|unique (ssRNA)
# RNA: GGGAGUUCUACAGUCCGACGAUCGCUUUAUUUCCCUAGCACUGGUGAAGGGCUUCAACUGUCAAACCUCAGAACAAAUGCAUUAGGGCCUUAGAAAUGUCAAUGGGGCAGGAAGAAAACACAAUUUCUAACUGCCUGUUUUUGCAACAGAGGAUUGAGCAUCA
# B18: chr14:53043751:53043854:-|3pUTR|ENSG00000100523|unk|FALSE|unique (ssRNA)
# RNA: GGGAGUUCUACAGUCCGACGAUCACUUAGAUUAAAUCUUGCUUUAUUUUUACUUUAAAAUUAGUCUUGCUAAGGCCUUAUGUUAGUUCAUACUUUCUUUUCAACAGUAAUCUUGUUUAUAAUCCAGUGUUUCUGUGUUUUAGGCAACAGAGGAUUGAGCAUCA
# B19: ENSG00000151025:stop:overlap|stop_codon|ENSG00000151025|stop_codon|NA|stop_codon (ssRNA)
# RNA: GGGAGUUCUACAGUCCGACGAUCUAAGUGCAAAUAAGAUAGCAGGGCCUAGGAAAGAAGAGAUCUGGGAUAGUUUUAAAGUGUAGCAUCUCCAGGAAGAAGAGGAAAAGGAGGGAACCCCGGAUUGGAUAUGAGACAGAAGAUCAACAGAGGAUUGAGCAUCA
# B20: chr11:56417260:56418232:-|CDS|ENSG00000279961|control|control|control (ssRNA)
# RNA: GGGAGUUCUACAGUCCGACGAUCGACAAGAUGGCUUCUGUAUUUUACACAGUGGUGAUCCCCAUGUUAAACCCCCUAAUCUAUAGUCUAAGGAACAAAGAAGUGAAAGAUGCCUCAAAGAAAGCCUUGGAUAAAGGUUGUGAACAACAGAGGAUUGAGCAUCA
# B21: chr17:61865808:61865921:-|3pUTR|ENSG00000108506|unk|total|mutant (ssRNA)
# RNA: GGGAGUUCUACAGUCCGACGAUCUUCUAUGAGAAUGAGUUUGCCGCUGUUUCAAAUCAUGAAGUGCACCGUAUCACAUGUGACCGAAUAUUUAUAACUUUUUAUCCGAUGCUUAAUGUUCAAUUAAGUAAUUUUGAUGUGAAACAACAGAGGAUUGAGCAUCA
# B22: ENSG00000136451:be:win_601|CDS|ENSG00000136451|bound_else_gene|NA|bound_elsewhere_windowed (ssRNA)
# RNA: GGGAGUUCUACAGUCCGACGAUCCCCUUUGAGUGUCCUAUUUGUAAUCAGCGCUUCAAGAGGAAGGACCGGAUGACUUACCAUGUGAGGUCUCAUGAAGGAGGCAUCACCAAACCCUAUACUUGCAGUGUUUGUGGGAAAGGCCAACAGAGGAUUGAGCAUCA
# Molecular target: MSI1 full-length (mouse, UniProt Q61474 1-362)
# Chain of UniProt Q61474 (Q61474 whole entry): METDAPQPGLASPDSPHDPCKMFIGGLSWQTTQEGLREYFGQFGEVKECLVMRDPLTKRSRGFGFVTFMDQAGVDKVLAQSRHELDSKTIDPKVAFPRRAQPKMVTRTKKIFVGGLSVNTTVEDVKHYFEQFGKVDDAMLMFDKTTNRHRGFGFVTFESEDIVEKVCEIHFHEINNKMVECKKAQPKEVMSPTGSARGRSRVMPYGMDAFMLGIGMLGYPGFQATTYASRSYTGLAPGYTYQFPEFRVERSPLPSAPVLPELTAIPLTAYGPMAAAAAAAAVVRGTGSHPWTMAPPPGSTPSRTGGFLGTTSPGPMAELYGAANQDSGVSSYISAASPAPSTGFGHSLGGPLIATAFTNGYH
# Assay: nsRBNS (natural sequence RNA bind-n-seq); RBNS binding buffer (assumed for nsRBNS): 25 mM Tris pH 7.5, 150 mM KCl, 3 mM MgCl2, 0.01% Triton X-100, 500 ug/ml BSA, 20 U/ml SUPERase-In, 4 C; UNK is unkempt and MSI1 is Musashi-1; names of the RNAs are library labels; protein concentration not given here; high values mean tight binding
row,Binder,binding signal [enrichment R]
1,B1,0.841
2,B2,0.26
3,B3,0.516
4,B4,0.254
5,B5,0.483
6,B6,4.13
7,B7,0.334
8,B8,0.45
9,B9,1.15
10,B10,0.769
11,B11,4.43
12,B12,0.425
13,B13,0.21
14,B14,0.436
15,B15,0.469
16,B16,0.365
17,B17,0.39
18,B18,14.6
19,B19,0.432
20,B20,1.38
21,B21,0.327
22,B22,0.385

# From article PMC12136788
